Where “and” joins values, the source holds several entries; their conditions need not be identical. Equal entries are not always repeated. This is one part of the list. These are further read-outs of the screen, such as a control signal, another cell line or another target. No call is given for them.
How the values were obtained:
Assay in all cases: Primary Screen for Target Class Profiling of Small Molecule Inhibitors of Methyltransferases
[1] = target: Glycine N-methyltransferase (Homo sapiens) (UniProt Q14749); settings: purified enzyme, MTase-Glo SAH luminescence; measured here: GNMT inhibition; at 40 µM; stronger effect = lower value
Procedure, shortened: (§1)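 Each enzyme was reacted with SAM and its substrate, with compounds tested once at 40 uM; SAH formed was read by MTase-Glo luminescence.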

[2] = target: Guanidinoacetate N-methyltransferase (Homo sapiens) (UniProt Q14353); settings: purified enzyme, MTase-Glo SAH luminescence; measured here: GAMT inhibition; at 40 µM; stronger effect = lower value
Procedure, shortened: as §1

[3] = target: Histamine N-methyltransferase (Homo sapiens) (UniProt P50135); settings: purified enzyme, MTase-Glo SAH luminescence; measured here: HNMT inhibition; at 40 µM; stronger effect = lower value
Procedure, shortened: as §1

[4] = target: Nicotinamide N-methyltransferase (Homo sapiens) (UniProt P40261); settings: purified enzyme, MTase-Glo SAH luminescence; measured here: NNMT inhibition; at 40 µM; stronger effect = lower value
Procedure, shortened: as §1

[5] = target: Phenylethanolamine N-methyltransferase (Homo sapiens) (UniProt P11086); settings: purified enzyme, MTase-Glo SAH luminescence; measured here: PNMT inhibition; at 40 µM; stronger effect = lower value
Procedure, shortened: as §1
% is scaled to controls: 0 for no effect and ±100 for the full control effect.

Compound | activity change, negative = inhibition [1] | activity change, negative = inhibition [2] [%] | activity change, negative = inhibition [3] | activity change, negative = inhibition [4] | activity change, negative = inhibition [5]
CCCCN1C(=O)c2cc(C(=O)NCCN3CCN(CC)CC3)nn2CC1(C)C(=O)NC1CCCC1 (stereo not given) | 4.17% | 0.613 | 4.89% | 1.33% | 3.54%
CCCn1c(=O)c2ccccc2n2c(=O)n(Cc3ccc(F)cc3)nc12 | 4.15% | 0.957 | 10.8% | -7.91% | 8.97%
Cc1ccccc1Cn1nc2n(c1=O)CCCCC2 | -2.58% | -2.45 | 0.485% | -4.82% | 7.63%
CC(C)CCNC(=O)C1c2c(n(C)c3ccccc23)SCC(=O)N1CCc1ccc(Cl)cc1 (stereo not given) | 6.96% | 5.86 | 0.463% | -5.15% | 3.95%
CC1(C(=O)NC2CCCC2)Cn2c(ccc2-c2ccco2)C(=O)N1CCc1ccccc1 (stereo not given) | -7.85% | -10.3 | 4.91% | -13.2% | -6.26%
CC(C)CCNC(=O)C1c2c(n(C)c3ccccc23)SCC(=O)N1Cc1cccs1 (stereo not given) | 4.18% | 0 | -4.61% | -4.54% | -1.01%
CCOc1ccc(CCN2C(=O)c3cc(C(=O)OC)nn3CC2(C)C(=O)NC2CCCCCC2)cc1 (stereo not given) | 0.27% | 1.54 | -8.91% | 1.25% | 2.32%
O=C(NCc1cccc(C(F)(F)F)c1)C1(CCO)CC12CCN(c1ncccn1)CC2 (stereo not given) | -5.21% | -3.28 | -1.7% | -4.27% | 0.588%
O=S(=O)(C1CC1)N1CCn2c(nnc2-c2cncc(Br)c2)C1 | -1.85% | -0.203 | -2.75% | -2.48% | -2.64%
C=C1CC2C3(C)C(O)CC(=O)C(C)(C)C3C(O)C(OC(C)=O)C2(C)C2C(=O)OC(C)(C(=O)OC)C(=O)C12C (stereo not given) | 1.14% | -7.62 | 2.88% | -15.7% | -3.02%
CCOc1ccc(C2c3cccn3-c3sc4c(c3CN2C(=O)Nc2ccc(F)cc2F)CCCC4)cc1 (stereo not given) | 4.89% | 2.19 | 1.86% | -9.3% | -0.928%
COCCN1CCC(C(=O)NO)(S(=O)(=O)c2ccc(Oc3ccc(OC(F)(F)F)cc3)cc2)CC1 | 8.45% | 3.47 | 3.31% | -13.9% | -1.32%
O=c1[nH]c2ccccc2n1C1CCN(S(=O)(=O)c2ccc(F)cc2)CC1 | -3.89% | 4.94 | 6.69% | 9.48% | -1.1%
COc1ccc(-c2cc3n(n2)CC(C)(C(=O)NCc2ccccc2)N(c2ccc(C)c(C)c2)C3=O)cc1 (stereo not given) | 7.95% | 1.83 | 10.4% | 10.2% | 2.79%
Cn1c(=O)n(C)c2cc(S(=O)(=O)N(Cc3ccccc3)C(=O)C3CCCCC3)ccc21 | -0.289% | 0 | -0.605% | -25.6% | -3.35%
Nc1ccc(-c2ccc3ccccc3n2)cc1 | -9.19% | 4.37 | 4.44% | -6.51% | -3.16%
CCc1cc2c(cc3n2CC(C)(C(=O)NC2CCC(C)CC2)N(CCCOC)C3=O)s1 (stereo not given) | 0.233% | 0.337 | 2.78% | -9.02% | -0.372%
CC1CCC2(C(=O)O)CCC3(C)C(=CCC4C5(C)C[C@@H](O)[C@@H](O)C(C)(CO)C5CCC43C)C2C1(C)O (stereo not given in full) | 0.751% | -7 | 5.14% | -14.6% | -10.1%
CC(=O)N1CCN(C(=O)c2ccc3oc(-c4ccccn4)nc3c2)CC1 | -1.7% | -2.77 | 0.99% | -6.08% | -1.36%
CCc1cccc(N2C(=O)c3cc4ccccc4n3CC2(C)C(=O)NCCC(C)C)c1 (stereo not given) | 1.35% | 2.24 | 3.21% | -3.68% | -1.31%

Compound | activity change, negative = inhibition [1] | activity change, negative = inhibition [2] [%] | activity change, negative = inhibition [3] | activity change, negative = inhibition [4] | activity change, negative = inhibition [5]
CC(C)Cn1c(=O)c2ccc(C(=O)NC3CCCCC3)cc2n2c(SCC(N)=O)nnc12 | 1.26% | 0 | 8.19% | -1.27% | 2.33%
O=C1CCCCC(CNC(=O)c2cccc(F)c2)N1 (stereo not given) | -1.38% | -0.184 | 1.19% | -4.39% | -2.18%
O=C(Nc1cccc(Cl)c1)N1Cc2c(sc3c2CCCC3)-n2cccc2C1c1ccccc1 (stereo not given) | -0.43% | 0 | -3.43% | -6.87% | 4.05%
CCOc1ccccc1CN1C(=O)c2cc(-c3cccs3)nn2CC1(C)C(=O)NC1CCCCC1 (stereo not given) | 6.09% | 1.12 | 9.33% | 8.59% | 5.33%
CCCn1c(=O)c2cc(Cl)ccc2n2c(SCC(=O)NC(C)C)nnc12 | -6.46% | 1.72 | 1.33% | -5.86% | -3.28%
O=C(NCc1ccco1)C1CCc2nc(N3CCN(C(=O)C4CCC4)CC3)sc2C1 (stereo not given) | -6.58% | -3.58 | -2.99% | -0.728% | 1.77%
O=C(CCc1nc2ccc(Cl)cc2[nH]1)N1CCc2c(nc3cc(-c4ccccc4)[nH]n3c2=O)C1 | -12.8% | -0.808 | -3.54% | 0.231% | -5.4%
COc1ccc(OC)c(S(=O)(=O)N2CCC3(CC2)CC(CC(=O)N(C)C)CCO3)c1 (stereo not given) | 5.77% | 1.15 | 15.6% | 5.21% | 10.3%
CN(C)CCN1C(=O)c2cc3sccc3n2CC1(C)C(=O)NC1CCCCCCC1 (stereo not given) | -4.56% | 0 | -12.8% | -10.4% | -1.92%
COc1ccc(CNC(=O)Cn2ccc3cc(S(=O)(=O)N4CCCCC4)ccc32)cc1OC | -15.3% | -0.333 | -6.54% | -16% | -3.91%
O=S(=O)(Nc1ccccn1)c1ccc(N=Cc2c(O)[nH]c3ccc4ncsc4c23)cc1 | -7.93% | 7.19 | 12.4% | -9.97% | 6.05%
Cc1nc(N2CCC(C(=O)NC3CCC(C)CC3)CC2)cc(C(F)(F)F)n1 (stereo not given) | 1.28% | -0.997 | 1.05% | 1.52% | -1.9%
CC(=O)OC[C@]12[C@H](OC(C)=O)C(=O)[C@@H]3[C@@H](O)[C@@]14O[C@@]3(C)COC(=O)c1cccnc1[C@@H](C)[C@H](C)C(=O)O[C@@H]([C@H](O)[C@@H]2OC(C)=O)[C@]4(C)O | -2.97% | -7.39 | 3.94% | -16.2% | -8.47%
O=C(CCn1ccc2cc(S(=O)(=O)N3CCCCC3)ccc21)NCCCN1CCCC1=O | 0.187% | 5.63 | 0.97% | -0.98% | 2.71%
Cc1cc(OCCCS(C)(=O)=O)cc(C)c1-c1cccc(COc2ccc3c(c2)OCC3CC(=O)O)c1 (stereo not given) | -30.5% |  | -1.16% |  | 
O=C1CCN(Cc2c[nH]c3ccccc23)CCCC(C(=O)NCc2ccccc2)CCN1 (stereo not given) | -10.5% | -8.7 | -8.27% | -13.9% | -4.92%
N#Cc1cccc(C(=O)NCc2nnc3ccc(-c4ccc(F)cc4)nn23)c1 | -5.85% | -1.76 | -0.815% | -3.8% | -4.81%
CCC(=O)N1CCOc2c(cc(-c3ccc(OC)c(OC)c3)cc2OC[C@H]2CCCN(C)C2)C1 | -0.701% | -1.06 | -52.4% | -17.1% | -7.02%
CC1(C)CC[C@]2(C(=O)O)CC[C@]3(C)C(=CCC4[C@@]5(C)C[C@H](O)[C@H](O[C@@H]6O[C@H](CO)[C@@H](O)[C@H](O)[C@H]6O)[C@@](C)(CO)C5[C@H](O)C[C@]43C)[C@@H]2C1 (stereo not given in full) | 1.14% | -1.28 | 10.8% | -12.7% | -6.95%
CC(C)NC(=O)CSc1nnc2n(Cc3ccccc3)c(=O)c3ccc(C(=O)NC(C)C)cc3n12 | 4.19% | 0 | 8.51% | 7.37% | 4.85%

Compound | activity change, negative = inhibition [1] | activity change, negative = inhibition [2] [%] | activity change, negative = inhibition [3] | activity change, negative = inhibition [4] | activity change, negative = inhibition [5]
CSCC1OC(n2cnc3c(=O)[nH]cnc32)C(O)C1O (stereo not given) | -0.023% | 0.002 | 3.42% | -11.7% | 3.74%
CC(C)(C)CC(=O)N1CCC2(CC1)N(c1ccccc1)C(=O)CS2(=O)=O | -5.65% | -9.56 | -2.13% | -2.86% | -3.49%
CC(C)CCCC1CN(C(=O)c2c(O)cccc2O)CCO1 (stereo not given) | -5.62% | -7.96 | -2.31% | -13.2% | -9.74%
CCC(C)NC(=O)c1ccc2c(=O)n(C(C)C)c3nn(CC(=O)Nc4ccc(F)cc4)c(=O)n3c2c1 (stereo not given) | 1.79% | 0 | 3.25% | 0.756% | 1.19%
Cc1ccccc1NC(=O)N1Cc2c(sc3c2CCCC3)-n2cccc2C1c1cccc(F)c1 (stereo not given) | 3.53% | 0 | 8.06% | 3.94% | 10%
Cc1ccc(S(=O)(=O)c2nnn3c2nc(NC(C)C)c2cc(Cl)ccc23)cc1C | -1.81% | 0 | 6.83% | 4.42% | -2.67%
O=C(NCC1CCOCC1)Nc1c(F)cccc1F | 0.495% | 1.02 | 2.45% | -4.83% | 14.8%
COc1ccccc1CCNC(=O)c1cc2n(n1)CC(C)(C(=O)NCc1ccc(F)cc1)N(C)C2=O (stereo not given) | 6.86% | 1.04 | -0.909% | 8.56% | 6.86%
C=Cc1ccc(Cn2nc3n(CCC(C)C)c(=O)c4ccc(C(=O)NC(C)C)cc4n3c2=O)cc1 | -8.81% | -7.53 | 1.53% | -16.4% | -3.47%
Cn1ccc(C(=O)N2CC3ON=C(C(=O)NCCc4ccc(Cl)cc4)C3C2)n1 (stereo not given) | -3.33% | -6.74 | -0.76% | -6.82% | -4.86%
Nc1ccccc1NC(=O)c1ccc(CNC(=O)OCc2cccnc2)cc1 | 6.69% and -23.1% | 7.39 | 10.1% and -8.58% | -8.84% and -13.8% | 3.79% and 19.8%
Cn1cc(-c2cc(=O)c3ccnc(NC4CCOCC4)c3o2)cn1 | -4.58% | -7.03 | -2.79% | -17.9% | -5.65%
O=C(NC1CCN(c2ccnc3ccnn23)C1)c1cc(F)ccc1Br (stereo not given) | -10.2% | -8.53 | -5.71% | -17.1% | -12.1%
CC12CCC3C(C)(C)C(O)CCC3(C)C1Cc1c(oc(C(=O)O)cc1=O)O2 (stereo not given) | -2.34% | 0.197 | 0.99% | -9.32% | 3.49%
COc1ccc(CNC(=O)C2(C)Cn3cnc(C(=O)NCc4ccccc4Cl)c3C(=O)N2C2CC2)cc1 (stereo not given) | 1.67% | 2.09 | 14.6% | 3.62% | 10.2%
Cc1ccc(N2C(=O)c3cc4sccc4n3CC2(C)C(=O)NC2CCCCCC2)c(C)c1 (stereo not given) | -0.711% | 4.78 | -5.5% | -1.21% | -6.56%
CN1CC2CN(c3ccc4oc5ccccc5c(=O)c4c3)CC2C1 (stereo not given) | -10.6% | -2.58 | -32% | -20% | -12.6%
O=C1NCN(c2ccccc2)C12CCN(CCCC(c1ccc(F)cc1)c1ccc(F)cc1)CC2 | -5.27% | 14.1 | -49.1% | -14.8% | 9.5%
O=C(Nc1ccc(-c2ccnc(Nc3ccc(N4CCOCC4)cc3)n2)cc1)[C@@H]1CCCN1 |  | -10.5 |  | -22.5% | -17.7%
